Measured values taken from the RNAGym collection of RNA variant scans (doi:10.7554/elife.90254).
Read counts are not given, so values of variants with three or more changes are uncertain.

B1: LINE1-mini (parent)
chain: GGCAGAGCUCAACACAGCGUGGCAAAGUGGCUGUGGCUAGACUGCC

Variants of: B1
Assay: self-cleavage, relative activity (ratio to wild type); higher = more cleavage; in vitro, sequencing; the parent is a self-cleaving ribozyme

Variant | self-cleavage
C23U U28A G35C | 0.15
C8U A11C G19U U38C | 0.01
C3G U9C G19C U20C C31U | 0
C3A C8A U9A G40C | 0.41
C18U A24C A41G C45U | 0.02
A6G A12C A24G C31U G35U | 0.02
G2U C10U U34G | 0.02
G27C G30C C37G A39G G40U | 0.03
A4U A24C U28C C37U | 0.1
A4G A12C U32A | 0.09
G2U G5U G17C | 0
A4G U20C G27U | 0.09
C8A C37G G40C | 0.04
G7A C15U G40U | 0.24
C15G G17C U20G U32A C37A | 0.18
G7U U9A G21U | 0.23
C8A A16G A39C | 0.08
C8A G30A U43A | 1.61
A16G A26C G40U | 0.02
G2C C18G G21U | 0.08
C10U G21A C23U G35U | 0.04

Variant | self-cleavage
G7C G19U G40A | 0.01
C31U G35A C37U | 0.08
C10A A24G G27U U28G G33U C45A | 0.01
G1U A6G C15A | 0.03
G5U A12G C37G | 0.05
G33U A41G C45U | 0.09
G1U A14C G21U U38A | 0.04
C3G A14G U28A U43C | 0.24
C3A A16U G36U U38G C42A | 0.11
G17A G33U C37A | 0.28
G2C C10A U32G G33U G36C C37A C45G | 0.02
C3U A11C U20A G30U | 0.01
U9C C10U A11G | 0.03
G1C A24C A26C | 0.02
G19A A25G A41C G44C | 0.07
C13A G21U C31U G33U C37A | 0.01
G5C G44A C45A | 0.02
U9A A11C A24U G35A | 0.01
C3A C13A U34C | 0.25
G1A C8G A12G G21U G36U | 0.06
A11U A12G C23G U28A | 0.01

Variant | self-cleavage
A16C G30C U34C G36U | 0.05
G2A G17U C18U G19C G30U | 0.63
G22C G27U G30A | 1.12
G1U U9G C45G C46U | 0.01
C18U A25U U28A G35C C37A | 0.03
C8A A14U C23A | 0.21
G19U A25U G27C | 0.5
A6C C31G U34C | 0.06
C18G G27U G29U C45A | 0.32
G2U A4G A24C | 0.06
G1U A4U C31A | 0.02
G5C A6G G27U G33C C42A G44U | 0.02
C13U G21A C31A U43G C45G | 0.15
U32G C37A G40U | 0.01
A4U C18A A25U A26U | 0.09
C3G A4G C8U A16C G17U G36A C37A G40A | 0.05
A6U U9A G33A | 0.17
C3A G21A G27C | 1.32
G22C C23U G40A | 0.19
C31U U38G A41G | 0.02
C3G G27A U34A | 0.11

Variant | self-cleavage
G1U C23G C31U A39G | 0.02
U20A G27U A39U | 0.49
G5A G7U A16U G27U G29U | 0.12
C3A C10A G36C | 0.07
A11U G19C G21A C23U G30C | 0.58
C8U C23U G35U G44U | 0.06
U9A A14C G17A C46A | 0.09
U9G G17U C31G A41U | 0.08
G2C G7A G21U | 0.95
G5C U9A G30A U32C | 0.05
A6U C8U G21A G33A | 0.14
A16C G22C A41C | 0
U9C A16U C42U U43G | 0.02
A4U C10G G33C G36A U38C | 0.01
U20C G22A U38G | 0.03
G33U U43G C46G | 0.03
C3U A4G G7U G17A U32C A39G | 0.03
A4G G35A C46U | 0.15
C18A A25G A26U A41G | 0.02
G27C U32G G40U | 0.11
G7C A25C G44C | 0.06
